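Cells were grown in 96-well plates and exposed to each compound for 48 hours at five concentrations; endpoints were interpolated linearly between bracketing concentrations, or set to the highest concentration if not reached. GI50 = concentration required for 50% inhibition of growth.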 Activity calls are given as the source filed them. Cut-off read from the data, not from the text of the source: active = GI50 up to about 1.1 µM and inactive = higher.
These compounds were tested on NCI-H322M (assay: DTP human tumour cell line panel, 48 h).

| SMILES | GI50 |
| --- | --- |
| Clc1ccc(-c2cn3c(nc4ccccc43)c(-c3ccccc3)n2)cc1 | inactive: 22.2 µM |
| CN(C)c1ncnc2c1ncn2CCn1cnc2c(N(C)C)ncnc21 | inactive: > 100 µM |
| N#CC(c1ccc(Cl)cc1)c1cccc(Cl)n1 (stereo unspecified) | inactive: 99.3 µM |
| COc1ccc(OC)c2nc3c(C(=O)NCCN(C)C)cccc3nc12 | inactive: 3.05 µM |
| CC(CC(C#N)(c1ccccc1)c1ccccc1)N1CCCCC1 (stereo unspecified) | inactive: 34.1 µM |
| CC(=O)C1(/N=N/c2ccc(S(N)(=O)=O)cc2)CCOC1=O (stereo unspecified) | inactive: > 100 µM |
| CCCC(=O)OCC1OC(n2cc(F)c(=O)[nH]c2=O)CC1OC(=O)CCC (stereo unspecified) | inactive: 2.33 µM |
| CN(C)c1nc(Oc2nc(N(C)C)nc(N(C)C)n2)nc(N(C)C)n1 | inactive: > 100 µM |
| COC(=O)c1c([N+](=O)[O-])ncn1[C@H]1OC[C@@H](OC(C)=O)[C@@H](OC(C)=O)[C@@H]1OC(C)=O | inactive: > 100 µM |
| CC(=O)CN/C(C)=N/Nc1ccc([N+](=O)[O-])cc1[N+](=O)[O-] | inactive: > 100 µM |
| CC(=O)C1=C(N=[N+]=[N-])c2cccc3cccc(c23)C1=O | inactive: 21.3 µM |
| C=C(Cl)COC(=O)Nc1cccc(Cl)c1 | inactive: 87.7 µM |
| CCOC(=O)C(NC(=O)CC(C)C)(N1CCN(c2cc3c(cc2F)c(=O)c(C(=O)O)cn3C2CC2)CC1)C(F)(F)F (stereo unspecified) | inactive: 34.8 µM |
| Cc1cc(C)c(S(=O)(=O)N(CCCCCCN)OCCCON(CCCCCCN)S(=O)(=O)c2c(C)cc(C)cc2C)c(C)c1 | inactive: 1.66 µM |
| O=C(NO)c1ccc(C(=O)NO)cc1 | inactive: 38.2 µM |
| O=C(Cc1nc2ccccc2s1)C(=O)Nc1ccccc1C(F)(F)F | inactive: > 100 µM |
| N#C/C(c1nc2ccccc2[nH]1)=c1\s/c(=C/c2ccccc2)c(=O)n1-c1ccccc1 | inactive: > 100 µM |
| C=C1C(=O)O[C@H]2C/C(C)=C/CC[C@]3(C)CCC[C@](C)(CC[C@@H]12)O3 | inactive: > 50 µM |
| N#Cc1c(-c2ccc(Cl)c(Cl)c2)c(-c2ccc(Cl)c(Cl)c2)nn(CC(=O)O)c1=O | inactive: > 100 µM |
| Clc1cc(Cc2cc(Cl)c(Cl)c3c2OCOC3)c2c(c1Cl)COCO2 | inactive: 87.7 µM |
| COc1cc2c(cc1OC)CC(=O)c1cc(OC)c(OC)cc1/C=C\2 | inactive: > 12.5 µM |
| O=C1C/C(=C\O)C(=O)c2ccccc2N1 | inactive: > 100 µM |
| Cc1nn2c(C(=O)N/N=C/c3ccccc3O)c(C)nc2s1 | inactive: 96.6 µM |

| SMILES | GI50 |
| --- | --- |
| CCOC(=O)CC[C@H](N)C(=O)N[C@@H](Cc1ccc(N(CCCl)CCCl)cc1)C(=O)OCC | inactive: 6.4 µM |
| O=C1C2=C(N[C@@H](c3ccccc3)[C@H](c3ccccc3)N2)C(=O)c2ccccc21 | inactive: > 100 µM |
| c1ccc2c(c1)SC1=Nc3sc4ccccc4[n+]3CN12 | inactive: 32.1 µM |
| CC(=O)Nc1cc(/C=C\C(=O)N2CC(CCl)c3c2cc(N)c2ccccc32)n(C)n1 (stereo unspecified) | active: 0.0137 µM |
| CC1(C)CC23CC(C)(C)c4cccc(c42)OCc2ccc4ccc5ccc(nc5c4n2)COc2cccc1c23 | inactive: > 50 µM |
| O=C1/C(=C/c2ccc(Br)s2)NC(=S)N1CN1CCCCC1 | inactive: 68.4 µM |
| N=C(N)n1ncc(Cl)c(Cl)c1=O | inactive: 12.4 µM |
| c1ccc2c(c1)nc1n2CSCC1 | inactive: > 100 µM |
| C/C(=N\Nc1nc2ccccc2s1)c1cc2ccccc2cn1 | inactive: 5.51 µM |
| CCOC(CI)O[C@@H]1C=C[C@H](OC(C)=O)C1 (stereo partly specified) | inactive: > 100 µM |
| COc1ccccc1C1C2=C(COC2=O)OC(C)(C)Oc2cc3c(cc21)OCO3 (stereo unspecified) | inactive: 4.35 µM |
| CCCCCCCCCCCc1c(O)c(=O)c2c(oc3c(=O)c(CCCCCCCCCCC)c(O)c(=O)c3n2-c2ccc(N(C)C)cc2)c1=O | inactive: 31.7 µM |
| COC(=O)c1cc(=O)nc2cc3cccccc3n12 | inactive: > 100 µM |
| CN(C)C1=NC2=S(SC(Nc3ccccc3)=N2)S1 (stereo unspecified) | inactive: 43.6 µM |
| CCOC(=O)c1nnsc1NC(=O)Nc1ccc(Cl)cc1 | inactive: 32 µM |
| Cc1ccc2c(c1)CC1(Cc3cccc(C)c3C1=O)C2=O (stereo unspecified) | inactive: > 100 µM |
| Cn1c(=O)nc2n(-c3ccc(Cl)cc3)c(-c3ccccc3)c(-c3ccccc3)nc-2c1=O | inactive: 32.3 µM |
| Nc1ccc(Oc2ccc(C34CC5CC6C3CC3CC4C(C5)C6(c4ccc(Oc5ccc(N)c(O)c5)cc4)C3)cc2)cc1O | inactive: 3.46 µM |
| CN(C(=O)c1ccc(Cl)s1)C(=S)N(C)C(=O)c1ccc(Cl)s1 | inactive: > 10 µM |
| CCCN1CN(C(C(=O)N[C@@H]2C(=O)N3C(C(=O)O)=C(C)CSC23)c2ccc(O)cc2)CSC1=S (stereo partly specified) | inactive: > 100 µM |
| O=C(/C=C/c1ccccc1F)c1ccc(Cl)c(Cl)c1 | inactive: > 91 µM |
| O=C(/C=C/c1ccc(Br)cc1)c1ccc(NCc2nc3ccccc3[nH]2)cc1 | inactive: 16.6 µM |
| COC(=O)C(CCCN1C(=O)c2ccccc2C1=O)C(=O)OC | inactive: > 100 µM |

| SMILES | GI50 |
| --- | --- |
| COC(=O)[C@@](C)(COC(=O)C(C)(C)C)NC(=O)OC(C)(C)C | inactive: > 100 µM |
| O=C(COc1ccc(Br)cc1Br)N1N=C(c2ccc([N+](=O)[O-])o2)CC1(O)c1ccccc1 (stereo unspecified) | inactive: 14.2 µM |
| COC(=O)[C@H](Cc1ccccc1)NC(=O)N1CCN(C(=O)N[C@@H](Cc2ccccc2)C(=O)OC)CCN(C(=O)N[C@@H](Cc2ccccc2)C(=O)OC)CC1 | inactive: > 100 µM |
| CC(NNC(=O)c1ccncc1)c1cccc(C(F)(F)F)c1 (stereo unspecified) | inactive: > 100 µM |
| COC(=O)CCc1ccc2c(c1)CC1(Cc3ccccc3C1)C2 | inactive: > 100 µM |
| O=c1oc2ccccc2cc1P(=O)(O)O | inactive: > 100 µM |
| CNC(=O)C(C)Oc1ccc(OCC2CCCCC2)cc1 (stereo unspecified) | inactive: > 100 µM |
| CCOC(=O)C1CC/C(=C(/C#N)C(=O)OC)N1 (stereo unspecified) | inactive: > 100 µM |
| CC1CC(c2ccc([N+](=O)[O-])cc2)=Nc2ccccc2[S+]1[O-] (stereo unspecified) | inactive: 35.7 µM |
| O=C(Nc1ccc(F)cc1)c1cc2ccc(O)cc2o/c1=N\c1cccc(F)c1 | inactive: 26.5 µM |
| CC1(C)OCC(C2OC(N3O[C@H](CI)C[C@@H]3c3ccccc3)C3OC(C)(C)OC23)O1 (stereo partly specified) | inactive: > 100 µM |
| C/C(=N\NC(=O)c1ccc(Cl)cc1)c1nc2cccnc2[nH]1 | inactive: 32.6 µM |
| COc1cc2c(cc1OC)C(=O)C(C1=C(SC(=N)N)C(=O)c3cc(OC)c(OC)cc31)C2 (stereo unspecified) | inactive: > 100 µM |
| NC1=Nc2ccccc2Sc2ccccc21 | inactive: > 100 µM |
| CN(C)c1ccc(/C=C/C=C(/C#N)c2ccccc2)cc1 | inactive: 40.6 µM |
| O=S1(=O)c2ccccc2-c2nccc3ccnc1c23 | inactive: 28.8 µM |
| CCOC(=O)COc1ccc(OC)c2c1C(=O)CCC2 | inactive: > 100 µM |
| COc1ccc(C2NC(=S)Nc3c2c(=O)oc2c3ccc3ccccc32)cc1 (stereo unspecified) | inactive: 52.1 µM |
| CN(C)C1(N(C)C)Oc2c(c(=O)n(C)c(=O)n2C)C(c2ccc(F)cc2)C1(F)F (stereo unspecified) | inactive: > 100 µM |
| C[C@@H]1C(=O)C[C@H]2C(C)(C)CCC[C@]2(C)[C@@]1(O)CCc1ccoc1 | inactive: > 100 µM |
| Nc1c(-c2nc3ccccc3[nH]2)sc(=S)n1-c1ccccc1 | inactive: > 100 µM |
| CCCC[S+]([O-])CCC(N)C(=O)O (stereo unspecified) | inactive: > 100 µM |
| COc1cccc(NC(=O)/C(Cc2nc3ccccc3nc2C)=N/NC(=O)C[n+]2ccccc2)c1 | inactive: > 100 µM |

| SMILES | GI50 |
| --- | --- |
| N#CC1(c2nc3ccccc3o2)C(=O)C(=O)N(c2ccc(Cl)c(Cl)c2)C(=O)C1=O | inactive: > 100 µM |
| CC1(C)CC23C4COC(=O)C2CCC1C3CC4=O (stereo unspecified) | inactive: 25.3 µM |
| CC(=O)c1c2n(n(-c3ccccc3)c1=O)C(=O)c1nccnc1-2 | inactive: > 100 µM |
| O=C(O)CCc1nc2c(n1Cc1ccccc1)C(=O)c1ccccc1C2=O | inactive: 61.9 µM |
| NNC(=O)N/N=C1\C(=O)N(c2nccs2)C(=O)C(=O)C1c1nc2ccccc2s1 (stereo unspecified) | inactive: > 100 µM |
| FC(F)(F)c1nc(-c2ccccc2)oc1Sc1nnc(Sc2oc(-c3ccccc3)nc2C(F)(F)F)s1 | inactive: > 100 µM |
| Clc1ccc(Nc2nc3ccccc3nc2-c2cccs2)cc1Cl | inactive: 49.3 µM |
| O=C(CC1C(=O)Nc2ccccc2[S+]1[O-])Nc1cc(Cl)ccc1Cl (stereo unspecified) | inactive: > 100 µM |
| C/C(CC(=O)Nc1cccc([N+](=O)[O-])c1)=N\NC(=O)C[n+]1ccccc1 | inactive: > 100 µM |
| O=[N+]([O-])c1ccc(C2=Nn3c(nnc3-c3ccccc3)SC2)o1 | inactive: 55.2 µM |
| CN1N=CSC12C(=O)N(c1ccccc1)C(=O)N2c1ccccc1 (stereo unspecified) | inactive: > 100 µM |
| O=C(Sc1n[nH]c(=O)[nH]c1=O)c1cccc2nc3ccccc3nc12 | inactive: 16.8 µM |
| COC1(CCO)CC=CCC1(CCO)OC (stereo unspecified) | inactive: > 100 µM |
| Brc1ccc(-c2cc3c(cc2C2SCCS2)OCO3)cc1 | inactive: 44.9 µM |
| C[C@H]1CC(=O)C2=CCCC3(SCCCS3)[C@@H]2[C@H]1CO | inactive: > 100 µM |
| CN1CNc2nc(N)n(C)c(=O)c2C1 | inactive: > 10 µM |
| CN(CCN1C(=O)c2cc([N+](=O)[O-])cc3cc([N+](=O)[O-])cc(c23)C1=O)CCN1C(=O)c2cc([N+](=O)[O-])cc3cc([N+](=O)[O-])cc(c23)C1=O | inactive: 3.27 µM |
| COc1ccc2c(c1)CCN=C2Cc1ccccc1CCCl | inactive: 60.3 µM |
| CCOC(=O)C1=NN(c2ccc([N+](=O)[O-])cc2)[C@@]2(C)C[C@]3(c4ccccc4)N(c4ccc([N+](=O)[O-])cc4)N=C(C(=O)OCC)N3c3ccccc3N12 | inactive: > 100 µM |
| CCCC(OCC)(OCC)OCC | inactive: > 100 µM |
| C[N+](C)(C)CC(=O)N/N=C(\C(=O)NC1=C(Cl)C(=O)c2ccccc2C1=O)C(C#N)c1csc(-c2ccc([N+](=O)[O-])cc2)n1 (stereo unspecified) | inactive: > 100 µM |
| O=C(NCCc1ccccc1)c1cc(/C=C/c2cc(O)ccc2O)ccc1O | inactive: 12.9 µM |

Source: ChEMBL document CHEMBL1201862, “PubChem BioAssay data set” (2004)
